Assay results published in publication PMC4336329 (PLoS ONE, 2015).
The whole screen tested about 310,000 compounds, of which about 2,200 (0.71%) showed an effect of 50% or more. The effect is printed as a negative number. The list shows a part of the results.

target: human ether-à-go-go-related gene (hERG) potassium channel (human, UniProt Q12809); assay: primary screen, population patch clamp on CHO cells stably expressing hERG
Sequence (Q12809 whole entry, looked up): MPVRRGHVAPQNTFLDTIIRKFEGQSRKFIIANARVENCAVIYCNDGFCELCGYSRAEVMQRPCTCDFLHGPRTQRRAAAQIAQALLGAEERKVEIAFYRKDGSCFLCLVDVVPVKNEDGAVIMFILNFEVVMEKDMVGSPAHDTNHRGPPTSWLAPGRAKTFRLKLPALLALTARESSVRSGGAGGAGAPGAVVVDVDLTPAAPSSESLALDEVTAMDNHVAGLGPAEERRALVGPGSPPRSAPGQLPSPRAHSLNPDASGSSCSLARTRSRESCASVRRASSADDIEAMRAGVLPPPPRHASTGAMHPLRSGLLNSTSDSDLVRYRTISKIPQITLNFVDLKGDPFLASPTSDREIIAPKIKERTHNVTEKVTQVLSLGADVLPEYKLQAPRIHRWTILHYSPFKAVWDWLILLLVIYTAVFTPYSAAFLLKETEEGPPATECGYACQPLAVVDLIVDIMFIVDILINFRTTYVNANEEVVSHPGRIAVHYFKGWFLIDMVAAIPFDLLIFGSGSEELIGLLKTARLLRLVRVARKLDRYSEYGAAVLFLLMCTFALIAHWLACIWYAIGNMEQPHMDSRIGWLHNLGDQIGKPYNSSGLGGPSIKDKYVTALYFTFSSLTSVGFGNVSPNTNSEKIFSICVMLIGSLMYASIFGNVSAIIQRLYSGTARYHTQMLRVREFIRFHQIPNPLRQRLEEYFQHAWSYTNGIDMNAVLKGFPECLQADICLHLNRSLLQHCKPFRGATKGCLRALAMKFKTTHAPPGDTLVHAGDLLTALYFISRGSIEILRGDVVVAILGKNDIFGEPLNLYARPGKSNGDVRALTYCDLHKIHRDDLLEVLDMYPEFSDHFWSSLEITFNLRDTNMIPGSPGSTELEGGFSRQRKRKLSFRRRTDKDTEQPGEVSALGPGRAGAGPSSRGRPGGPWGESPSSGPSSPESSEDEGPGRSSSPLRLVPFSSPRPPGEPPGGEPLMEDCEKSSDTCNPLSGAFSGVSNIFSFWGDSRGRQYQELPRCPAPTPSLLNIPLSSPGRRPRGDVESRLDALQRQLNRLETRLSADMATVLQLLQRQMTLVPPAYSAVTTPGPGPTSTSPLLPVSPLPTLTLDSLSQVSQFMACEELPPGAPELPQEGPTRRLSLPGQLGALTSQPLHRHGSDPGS

SMILES	hERG current change (%, negative = inhibition) at 1uM [%]
CCc1c(C)sc(NC(=O)OC)c1C(N)=O	13.4
Cc1ccc2oc(-c3ccco3)nc2c1	-4.7
CCOc1ccc(C(CC(=O)O)NC(=O)COc2ccccc2OC)cc1OC (stereo not shown)	13.3
Cc1ccccc1COC(=O)CNC(=O)c1sc2ccccc2c1Cl	15
Cc1nc2ccc(Cl)cc2nc1C	5.4
COCCNC(=O)Cn1nc(Cc2ccncc2)c2ccccc2c1=O	11.2
CCOc1cc(C2c3c(n[nH]c3C)C(=O)N2c2ccc(Br)cc2)ccc1O (stereo not shown)	10.8
Nc1ccccc1NC(=O)c1ccccc1N	6.04
COc1ccccc1NC(=O)COC(=O)c1c[nH]c2ccccc12	9.21
COc1ccc(N2CCN(C(=O)c3ccc(N4CCCCS4(=O)=O)cc3)CC2)cc1	10.7
COC(=O)c1cnn(C(=O)c2cc(OC)ccc2Br)c1N	9.43
Cc1ccc(C2CC(c3cccc(Cl)c3)n3nc(N)nc3N2)cc1 (stereo not shown)	9.11
Cc1cc(=O)oc2cc(OCC(=O)OCC(=O)Nc3ccc(C(N)=O)cc3)ccc12	4.02
CCOC(=O)c1cc(C(=O)OCC)cc(-n2cc(O)c(C(=O)OCC)n2)c1	16.9
O=C(O)c1cc([N+](=O)[O-])ccc1C(=O)Nc1ccccc1	10
CCOC(=O)/C(C#N)=C/c1c(OCC)n(CC)c2ccccc12	11.2
CCOC(=O)c1cc(=O)n(-c2ccc(Cl)cc2C)[nH]1	5.68
COc1ccc(N(CC(=O)N2CCCCCC2)S(=O)(=O)c2c(C)[nH]c(=O)[nH]c2=O)cc1	3.01
CSc1ccn(CCC(=O)O)c(=O)n1	10.9
Nc1c(C(=O)C2CC2)sc2nc(-c3cccs3)cc(C(F)(F)F)c12	16.6
O=C(NC1CCCCC1)C(c1cccs1)N(C(=O)c1ccco1)c1ccc2c(c1)OCCO2 (stereo not shown)	8.1
COc1ccccc1/C=C/C(=O)Oc1cccc2cccnc12.Cl	4.74
COc1cccc(-c2ccc(C#N)c(SCC(=O)NCCc3ccccc3)n2)c1	7.28

SMILES	hERG current change (%, negative = inhibition) at 1uM [%]
Cl.c1ccc2c3c([nH]c2c1)C1(CCCCC1)NCC3	11.5
CCn1c(SCC(=O)Nc2cc(C)on2)nnc1-c1ccco1	-1.47
Cc1ccc(N2C(=O)CC(NCc3ccc4c(c3)OCO4)C2=O)cc1Cl (stereo not shown)	-12.2
CCCCc1nnc(NC(=O)c2nc3nccc(C)n3n2)s1	9.77
O=C(N/C(=C\c1ccc(Br)cc1)C(=O)N1CCOCC1)c1ccco1	3.96
CCOc1ccc(C=Nc2cccc3ncccc23)cc1	9.74
O=C(O)C(=O)O.c1ccc(-c2ccccc2OCCN2CCCCC2)cc1	-4.98
O=C(CSc1nnc(Cc2ccccc2)o1)NC1CC2CCC1C2 (stereo not shown)	1.88
COc1ccc(NC(=O)c2oc3ccccc3c2C)cn1	9.55
Cc1ccc(S(=O)(=O)NC(=O)c2ccccc2F)cc1	1.23
O=C(Nc1ncccc1O)c1ccc(OCC2CCCO2)cc1 (stereo not shown)	5.2
COc1ccc(NC(C)=O)cc1NS(=O)(=O)c1ccc2c(c1)OCCO2	15.8
S=C(NCCCN1CCOCC1)N1CCN(c2ccccc2)CC1	1.19
COc1ccccc1C(=O)NCC(=O)n1nc(C)cc1C	16.3
CCn1c(SCC(=O)Nc2ccc(S(=O)(=O)Nc3ccccn3)cc2)nnc1-c1ccncc1	7.2
Cc1ccc(-c2ccc(/C=N\n3cnnc3)o2)c(Br)c1	11.5
CCC(C)(C)C1CCC(=NNS(=O)(=O)c2ccc(C)c([N+](=O)[O-])c2)CC1 (stereo not shown)	10.6
CCOC(=O)CSC1=C(C#N)C(c2sccc2C)CC(=O)N1 (stereo not shown)	-12.7
Cc1ccnc2nc(C(=O)OCC(=O)c3ccc(Cl)cc3)nn12	14
C=CCOn1c(=O)c(-c2ccc(Br)cc2)[n+]([O-])c2ccccc21	11.7
Cc1ccccc1NC(=O)COc1coc(CN2CCCc3ccccc32)cc1=O	2.18
Cc1cc(C)c[n+](CC(=O)c2cc3ccccc3oc2=O)c1.[Br-]	-6.34
CCOC(=O)C1=C(CSc2nc(C)cc(C)c2C#N)OC(N)=C(C#N)C1c1ccccc1.CN(C)C=O (stereo not shown)	4.86
